Reference: PubChem BioAssay AID485367 (National Center for Advancing Translational Sciences (NCATS), 2010)
Out of some 330,000 compounds screened, about 560 (0.17%) were called active. The shares of active, inactive and inconclusive entries below differ from those in the screen. Calls follow the shape of the dose curve; as a rule, active = well fitted inhibition curve with a large enough effect; inconclusive = small, poorly fitted or top-dose-only effect, or effect the other way; inactive = flat fitted curve, though single readings scatter. No potency is given beside an inconclusive call; the fits are too rough.

target: ATP-dependent 6-phosphofructokinase (Trypanosoma brucei brucei) (UniProt O15648); assay: qHTS Assay to Find Inhibitors of T. brucei phosphofructokinase; also: nearly all actives have a fitted effect of over 60% in size;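 as to activity, negative = inhibition: 0% = uninhibited 1x PFK enzyme wells and -100% = no-enzyme wells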; conditions: T. brucei PFK, ADP-Glo luminescence; activity, negative = inhibition: at 57.5 µM (top of the series)
Procedure, shortened: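 1.25 nM PFK with 0.5 mM F6P and 0.1 mM ATP in 0.1 M TEA pH 8.0, 5 mM MgCl2, incubated 45 min at room temperature; ADP measured by ADP-Glo luminescence; compounds titrated up to 57 uM.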
Potency is read from the fitted curve at half-maximal effect; tags tell the direction and shape of the fitted curve.

Chain of UniProt O15648 (O15648 whole entry, looked up): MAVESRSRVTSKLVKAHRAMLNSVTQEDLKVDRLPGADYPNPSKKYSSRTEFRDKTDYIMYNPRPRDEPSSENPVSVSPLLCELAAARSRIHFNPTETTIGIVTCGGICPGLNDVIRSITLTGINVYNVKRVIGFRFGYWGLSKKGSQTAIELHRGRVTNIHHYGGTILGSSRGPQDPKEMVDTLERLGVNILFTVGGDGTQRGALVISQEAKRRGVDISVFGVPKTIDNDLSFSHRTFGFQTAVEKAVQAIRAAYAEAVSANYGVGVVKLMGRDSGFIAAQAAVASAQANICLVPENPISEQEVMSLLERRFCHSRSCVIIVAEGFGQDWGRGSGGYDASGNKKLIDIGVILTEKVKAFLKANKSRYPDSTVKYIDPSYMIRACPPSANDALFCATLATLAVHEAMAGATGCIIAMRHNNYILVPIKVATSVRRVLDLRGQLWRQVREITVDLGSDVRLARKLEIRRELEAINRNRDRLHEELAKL

Row | SMILES | Potency | activity, negative = inhibition
1 | O=C(O)C[C@@H]1C(=O)O[C@@H]2C(COC(=O)c3cc(O)c(O)c(O)c3)O[C@@H](OC(=O)c3cc(O)c(O)c(O)c3)[C@@H](OC(=O)c3cc(O)c(O)c4c3[C@H]1[C@H](O)C(=O)O4)[C@H]2OC(=O)c1cc(O)c(O)c(O)c1 (stereo partly drawn) | active: 1.51 µM | –
2 | CC(OC(=O)Cc1c(F)cccc1Cl)C(=O)NC1(C#N)CCCCC1 (stereo not drawn) | inconclusive [falling, single point] | –
3 | Cn1c(=O)c2c(ncn2CC(COCc2ccc(Cl)cc2)OCc2ccc(Cl)cc2)n(C)c1=O (stereo not drawn) | inconclusive [falling, single point] | –
4 | N/C(Cc1ccc(Cl)c(Cl)c1)=N\OC(=O)c1cccs1 | inconclusive [falling, partial curve] | –
5 | NC(=O)C(=CNc1nc(-c2ccc(Cl)c(Cl)c2)cs1)C(N)=O | inconclusive [falling, single point] | –
6 | Cc1ccc(NC(=O)Cn2nc([N+](=O)[O-])c(Br)c2C)cc1C | inconclusive [falling, partial curve] | –
7 | COc1ccc(NC(=S)N(CCC(C)C)C2CCN(C(C)C)CC2)cc1Cl | inconclusive [falling, partial curve] | –
8 | CCC1=NN(C(=O)COc2ccccc2C)C(O)(c2ccncc2)C1 (stereo not drawn) | inconclusive [falling, single point] | –
9 | CC1=NOC(=O)/C1=C\c1ccc(-c2ccccc2Br)o1 | inconclusive [falling, single point] | –
10 | NCCCCCc1nnc(SCc2ccc(Cl)c(Cl)c2)o1 | active: 23.9 µM | –
11 | CCn1c(=O)c(=O)n(CC)c2cc(N3CCCCC3)c(NC(=O)c3ccc(Cl)cc3)cc21 | inconclusive [falling, partial curve] | –
12 | O=[N+]([O-])c1ccc(Oc2ccc(S(=O)(=O)N3CCOCC3)cn2)cc1 | inconclusive [falling, single point] | –
13 | Nn1c(SCC(=O)Nc2cccnc2Cl)nnc1-c1ccccc1 | inconclusive [falling, partial curve] | –
14 | CC(C)OC(=O)c1cn(-c2ccccc2)nc1-c1ccco1 | inconclusive [falling, partial curve, poor fit] | –
15 | O=C(O)CCNC(=O)c1ccc(NC(=O)Cc2ccc(Cl)cc2)cc1 | inconclusive [falling, partial curve] | –
16 | COc1cc(C(=S)N2CCN(c3ccccc3Cl)CC2)cc(O)c1O | inconclusive [activator, partial curve] | –
17 | COc1ccc(S(=O)(=O)Nc2ccc3cn[nH]c3c2)cc1[N+](=O)[O-] | inconclusive [falling, single point] | –
18 | O=C(N/N=C/c1ccc(O)c(O)c1)N/N=C/c1ccc(O)c(O)c1 | inconclusive [falling, partial curve] | –
19 | Cc1ccc([N+](=O)[O-])cc1S(=O)(=O)Nc1ccc(C(=O)NCc2ccccn2)cc1 | inconclusive [falling, partial curve] | –
20 | O=C(Cn1nc(-c2ccco2)ccc1=O)Nc1ccc(Cl)c(Cl)c1 | inconclusive [falling, single point] | –
21 | O=C(Nc1cnn(Cc2ccc(F)cc2)c1)c1noc2c1CCCC2 | – | inactive: -24.7%
22 | Cc1ccc(C)n1-c1sccc1C(=O)O | inconclusive [falling, single point] | –
23 | NC(=O)c1ccsc1NC(=O)CSc1ccccc1F | inconclusive [activator, full curve, poor fit] | –

Row | SMILES | Potency | activity, negative = inhibition
24 | OCCN1CCN(C(=S)c2ccc(Cl)c(Cl)c2)CC1 | active: 19 µM | –
25 | Nc1ccc2c(c1)C(=O)N(c1cccc3ccccc13)C2=O | inconclusive [falling, single point] | –
26 | Cc1ccc(O)c(CP(=O)(c2ccccc2)c2ccccc2)c1 | – | inactive: -1.06%
27 | CCCCc1nc2cc(C(=O)N3CCNC(=O)C3CC(=O)OC)ccc2o1 (stereo not drawn) | – | inactive: 0.342%
28 | O=c1oc(-c2ccccc2)nc2sc3c(c12)CCC3 | inconclusive [falling, full curve] | –
29 | CN1CCC(N(C)C(=O)c2ccccc2F)CC1 | inconclusive [falling, single point] | –
30 | c1ccc(CCN(Cc2ccccc2)C2CCN(C3CCCC3)CC2)cc1 | – | inactive: -11.5%
31 | CCCCNc1c(-c2ccc(-c3ccc(C(C)=O)cc3)c(OC)c2)nc2cnccn12 | – | inactive: 4.52%
32 | O=C(CSc1ncccc1C(=O)O)c1ccc2ccccc2c1 | inconclusive [activator, single point] | –
33 | CN=c1scc(-c2ccccc2F)n1/N=C(\C)c1cccnc1 | inconclusive [activator, single point] | –
34 | O=C(COC(=O)c1ccc[n+]([O-])c1)Nc1c(Br)cc([N+](=O)[O-])cc1Br | – | inactive: -2.41%
35 | CCCc1nc(SCC(=O)N2CCC(C)CC2)c2c(=O)n(C)c(=O)n(C)c2n1 | – | inactive: -7.36%
36 | CC(C)Cn1c(N)c(C(=O)CSc2nc3ncc(Cl)cc3[nH]2)c(=O)n(C)c1=O | inconclusive [falling, single point] | –
37 | COc1ccc(CN2C(=O)c3cccc4cccc2c34)cc1F | – | inactive: 1.61%
38 | CC(C)CCNC(=O)c1cc2c(=O)n3ccccc3nc2s1 | – | inactive: -1.95%
39 | O=C(CSc1nnc(COc2ccccc2Cl)o1)NC(=O)NCc1ccco1 | inconclusive [falling, single point] | –
40 | O=C(COc1ccccc1C(=O)N/N=C\c1ccc(O)c(O)c1)N/N=C/c1ccc(O)c(O)c1 | inconclusive [falling, partial curve] | –
41 | COc1ccc(S(=O)(=O)NCc2cccs2)cc1 | inconclusive [falling, single point] | –
42 | COC(=O)c1sccc1NC(=O)CC1NCCNC1=O (stereo not drawn) | inconclusive [falling, single point] | –
43 | Oc1ccc(O)c(-c2cnns2)c1 | inconclusive [falling, single point] | –
44 | Cc1cc(C)c(C)c(S(=O)(=O)N[C@@H](C)C(=O)OCc2cc(=O)n3cc(Br)ccc3n2)c1C | inconclusive [falling, full curve, poor fit] | –
45 | O=C(Cc1cccc2ccccc12)Nc1ccc2c(c1)C(=O)NC2=O | inconclusive [falling, single point] | –
46 | CC(=O)c1ccc(-n2cc(-c3ccc(C(C)(C)C)cc3)[n+]3c2SCCC3)cc1 | – | inactive: -2.12%

Row | SMILES | Potency | activity, negative = inhibition
47 | Cn1cnnc1SCC(=O)Nc1ncc([N+](=O)[O-])s1 | – | inactive: -15.1%
48 | O=C(COC(=O)c1ccc(F)cc1Cl)NCc1ccco1 | inconclusive [falling, single point] | –
49 | O=C(NCC(=O)N(c1ccc2c(c1)OCO2)C(C(=O)NC1CCCC1)c1ccncc1)c1ccco1 (stereo not drawn) | inconclusive [falling, single point] | –
50 | O=C(/C=C1\C(=O)Nc2ccccc21)/C=C1\C(=O)Nc2ccccc21 | inconclusive [falling, partial curve] | –
51 | COc1ccc(N=c2ssnc2Cl)cc1 | inconclusive [falling, single point] | –
52 | COC(=O)c1cccc(-n2sc3ccccc3c2=O)c1 | active: 6.75 µM | –
53 | O=C(CNC(=O)c1ccc(Br)o1)NNC(=O)c1n[nH]c(=O)c2ccccc12 | inconclusive [activator, single point] | –
54 | CCOc1ccc(S(=O)(=O)N2CCC(C(=O)NCCc3ccc(S(N)(=O)=O)cc3)CC2)cc1 | – | inactive: -0.94%
55 | CC(CCc1ccco1)NC(=O)CCc1nnc2ccc(NCc3ccccc3Cl)nn12 (stereo not drawn) | inconclusive [falling, partial curve] | –
56 | NS(=O)(=O)c1ccc(CCNC(=O)c2ccc[nH]c2=S)cc1 | inconclusive [falling, single point] | –
57 | O=C(/C=C/Nc1ccc(F)c(Cl)c1)c1ccco1 | inconclusive [falling, single point] | –
58 | O=S(=O)(c1cc(O)ccc1O)c1cccc2c(S(=O)(=O)c3cc(O)ccc3O)cccc12 | inconclusive [falling, partial curve] | –
59 | CCCN(CCC)C(=O)CC(c1ccccc1)c1ccco1 (stereo not drawn) | inconclusive [falling, single point] | –
60 | Cc1cc([N+](=O)[O-])nn1CC(=O)Nc1sc2c(c1C(N)=O)CCCC2 | – | inactive: 3.68%
61 | NC(=O)c1cc(S(=O)(=O)N2CCN(c3ccc([N+](=O)[O-])cc3)CC2)cs1 | active: 21.3 µM | –
62 | CCOC(=O)Nc1nnc(Cc2ccc(Cl)c(Cl)c2)s1 | inconclusive [falling, partial curve] | –
63 | NS(=O)(=O)c1cccc(NC(=O)Nc2ccc(Cl)cc2)c1 | inconclusive [falling, single point] | –
64 | COc1ccccc1N(CC(O)COc1c(C)cc(C)cc1C)S(=O)(=O)c1ccccc1 (stereo not drawn) | inconclusive [falling, single point] | –
65 | Cc1c(-c2ccc(Cl)cc2)oc(=O)c2c(N)n(-c3ccccc3)nc12 | inconclusive [falling, full curve] | –
66 | O=C(CCn1nnc2ccccc21)Nc1nnc(COc2ccccc2F)s1 | – | inactive: 5.64%
67 | O=C(NCCCN1CCc2ccccc2C1)Nc1ccc(Cl)cc1 | inconclusive [falling, single point] | –
68 | O=C(OCc1ccc([N+](=O)[O-])cc1)c1cnc(Cl)c(Cl)c1 | inconclusive [falling, single point] | –
